The results in this text go back to paper PMC4336329 (PLoS ONE, 2015).

Screen size: about 310,000 compounds; about 14,000 (4.5%) showed an effect of 50% or more. The effect is printed as a negative number. This is one part of the list.
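Also: peak tail current of the secondary pulse compared with the same well before compound.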

For the test, the target named is human ether-à-go-go-related gene (hERG) potassium channel (human, UniProt Q12809). Put plainly: primary screen, population patch clamp on CHO cells stably expressing hERG.
Chain of human ether-à-go-go-related gene (hERG) potassium channel (Q12809 whole entry, looked up): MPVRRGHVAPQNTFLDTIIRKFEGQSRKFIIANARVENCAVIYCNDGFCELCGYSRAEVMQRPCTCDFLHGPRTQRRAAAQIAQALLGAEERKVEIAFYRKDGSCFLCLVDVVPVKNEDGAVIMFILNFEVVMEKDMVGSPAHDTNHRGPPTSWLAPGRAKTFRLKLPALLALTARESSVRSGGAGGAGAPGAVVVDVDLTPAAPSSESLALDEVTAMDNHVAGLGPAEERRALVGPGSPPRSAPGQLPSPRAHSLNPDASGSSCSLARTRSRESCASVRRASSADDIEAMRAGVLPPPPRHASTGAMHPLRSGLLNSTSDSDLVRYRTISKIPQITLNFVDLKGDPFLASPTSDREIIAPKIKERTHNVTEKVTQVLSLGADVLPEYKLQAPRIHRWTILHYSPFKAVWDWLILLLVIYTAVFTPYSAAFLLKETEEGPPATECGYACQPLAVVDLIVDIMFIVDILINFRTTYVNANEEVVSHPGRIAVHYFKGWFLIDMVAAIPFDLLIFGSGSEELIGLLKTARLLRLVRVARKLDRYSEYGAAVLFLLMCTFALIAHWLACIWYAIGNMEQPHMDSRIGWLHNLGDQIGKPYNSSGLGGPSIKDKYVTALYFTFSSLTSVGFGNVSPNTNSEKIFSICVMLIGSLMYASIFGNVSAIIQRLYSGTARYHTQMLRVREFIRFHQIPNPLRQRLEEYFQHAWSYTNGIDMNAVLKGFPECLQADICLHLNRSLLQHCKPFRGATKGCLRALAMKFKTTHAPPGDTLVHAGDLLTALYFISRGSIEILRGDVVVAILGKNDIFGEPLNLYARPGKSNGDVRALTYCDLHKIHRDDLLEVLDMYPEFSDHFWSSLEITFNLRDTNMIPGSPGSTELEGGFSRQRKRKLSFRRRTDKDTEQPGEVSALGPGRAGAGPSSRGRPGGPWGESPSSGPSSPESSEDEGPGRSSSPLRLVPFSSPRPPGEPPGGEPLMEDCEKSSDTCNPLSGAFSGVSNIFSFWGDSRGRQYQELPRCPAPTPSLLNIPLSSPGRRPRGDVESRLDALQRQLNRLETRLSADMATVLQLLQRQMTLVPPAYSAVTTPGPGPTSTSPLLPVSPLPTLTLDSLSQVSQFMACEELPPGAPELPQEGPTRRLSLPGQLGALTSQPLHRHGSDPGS
`CCCN(CC(=O)Nc1ccc(F)c(F)c1F)CC(=O)Nc1c(C)n(C)n(-c2ccccc2)c1=O`: the “hERG current change (%, negative = inhibition) at 10uM” value is on record as 0.486%.

`CC1CCCN(C(=O)CNC(=O)Cn2ccc3ccccc3c2=O)C1` (centres unmarked): the “hERG current change (%, negative = inhibition) at 10uM” value is listed as -5.78%. Consider `Cc1ccc(C(=O)N2CCN(c3ccc(NC(=S)NC(=O)c4cccs4)cc3)CC2)cc1`, for which the “hERG current change (%, negative = inhibition) at 10uM” value is on record as -9.1%. For the compound `CCN1CCN(c2ccc(S(=O)(=O)N3CCOCC3)cc2NC(=O)c2ccccc2SC)CC1`, the “hERG current change (%, negative = inhibition) at 10uM” value is listed as -60.1%. To `O=C(c1ccc(F)cc1)N(c1ccccn1)C1CCCCC1` belongs 8.08%; to `Cc1ccc(S(=O)(=O)Nc2cccc(-n3cnnn3)c2)cc1C(=O)O`, 3.97%. With `CCOc1cc(Cl)c(S(=O)(=O)NCCCN2CCOCC2)cc1Cl`, the “hERG current change (%, negative = inhibition) at 10uM” value is -48.6%.

For `O=C1C2C3C=CC(C3)C2C(=O)N1Nc1ccccc1` (centres unmarked), the “hERG current change (%, negative = inhibition) at 10uM” value turned out to be 11.3%.

As to `CC1(C)Nc2ccc(O)cc2-c2c1ssc2=S`, the “hERG current change (%, negative = inhibition) at 10uM” value is reported as -2.85%. In the case of `COc1cc(NC(=O)c2c(F)cccc2F)nc(OC)n1` it was 2.47%. To `Cc1csc(N(C)C(=O)CSc2nnc(COc3ccccc3C)o2)n1` belongs -6.82%. `Cn1c(=O)c2c(nc(Sc3ncnn3CC(=O)N3CCOCC3)n2C)n(C)c1=O`: the “hERG current change (%, negative = inhibition) at 10uM” value amounted to 8.88%.

`COc1cccc(C2=CC(=O)CC(C)(C)C2)n1`: the “hERG current change (%, negative = inhibition) at 10uM” value came to 4.37%. Consider `O=C(O)CCCCCNS(=O)(=O)/C=C/c1ccccc1`, for which the “hERG current change (%, negative = inhibition) at 10uM” value was 29.5%. Consider `CCOC(=O)C(Cc1ccc(Cl)cc1Cl)c1ccno1` (centres unmarked), for which the “hERG current change (%, negative = inhibition) at 10uM” value was determined as 14.3%. Consider `CCn1nnc(NC(=O)COc2ccc(C3CCCCC3)cc2)n1`, for which the “hERG current change (%, negative = inhibition) at 10uM” value is recorded as -22%. As to `CCCC1c2ccsc2CCN1C(=S)NC` (centres unmarked), the “hERG current change (%, negative = inhibition) at 10uM” value is 4.63%. To `O=S(=O)(NCCc1cn2ccccc2n1)c1ccc(-c2ccccc2)cc1` belongs -62%; to `COc1cc(Cl)ccc1OCc1cc(C(=O)N(C)CC2CCCCO2)no1` (centres unmarked), -18.7%; to `O=S(=O)(NCC(c1cccnc1)N1CCN(c2ccc(F)cc2)CC1)c1ccc(F)cc1` (centres unmarked), -69%.

Regarding `NC(=O)c1cc([N+](=O)[O-])ccc1NCc1cccnc1`, the “hERG current change (%, negative = inhibition) at 10uM” value is -20%. In the case of `Cc1ccccc1NC(=O)CCc1c(C)nn(-c2ccc(N3CCOCC3)nn2)c1C` it was -1.3%; in that of `CCOC(=O)c1csc(COc2ccccc2Cl)n1`, -38.5%.

In the case of `CC1=C(C(=O)OCC(C)C)C2(O)C(=O)c3ccccc3C2(O)N1` (centres unmarked), the “hERG current change (%, negative = inhibition) at 10uM” value was found to be 3.4%. With `COCc1nnc(NC(=O)c2ccc(S(=O)(=O)N3CCOCC3)cc2)o1`, the “hERG current change (%, negative = inhibition) at 10uM” value is 10.9%. As for `CCN(CC)CCNC(=O)c1cn(CC)c2ccc(S(=O)(=O)N3CCc4ccccc4C3)cc2c1=O`, the “hERG current change (%, negative = inhibition) at 10uM” value is listed as -59.4%. For the compound `O=C(Nc1ccc(F)cc1F)c1ccc2ncsc2c1`, the “hERG current change (%, negative = inhibition) at 10uM” value came to 4.79%. In the case of `COc1ccc(-c2csc3ncnc(N4CCN(c5ccccc5[N+](=O)[O-])CC4)c23)cc1` it was 14.8%; in that of `Cc1nnc(N2C(=O)C(=O)/C(=C(/O)c3ccc4c(c3)OCCO4)C2c2ccc(F)cc2)s1` (centres unmarked), 20.4%; in that of `COc1ccc(NC(=O)CCC(=O)c2cccs2)c(OC)c1`, 4.43%. To `COCCOC(=O)C1=C(C)N(c2ccccc2)C(=O)NC1c1cccc([N+](=O)[O-])c1` (centres unmarked) belongs -12.9%; to `COc1ccc(NC(=O)[C@H](COCc2ccccc2)NC(=O)OC(C)(C)C)cc1`, -7%; to `Cc1onc(-c2c(F)cccc2Cl)c1C(=O)NC1CCCCCC1`, -12.7%. With `OCCC1CN(Cc2cccc3nonc23)CCN1C1CCCCC1` (centres unmarked), the “hERG current change (%, negative = inhibition) at 10uM” value is -5.74%. As to `COc1ccccc1CC(=O)Nc1ccccc1O`, the “hERG current change (%, negative = inhibition) at 10uM” value was 13%. As for `Cc1cccc(C)c1NC(=O)CN1N=NC2C(=O)N(c3cccc(Cl)c3)C(=O)C21` (centres unmarked), the “hERG current change (%, negative = inhibition) at 10uM” value was -6.3%. `N#Cc1c(NC(=O)CCN2C(=O)c3ccccc3C2=O)oc(-c2ccccc2)c1-c1ccccc1`: the “hERG current change (%, negative = inhibition) at 10uM” value is -11.7%. In the case of `CC(C)n1c(Sc2nccn2C)nc2c1c(=O)n(C)c(=O)n2C` it was 0.592%; in that of `CN=c1scc(-c2ccccc2F)n1/N=C(\C)c1cccnc1`, -28.9%; in that of `COc1ccc(NC(=O)COC(=O)Cc2c(F)cccc2Cl)cc1`, -0.319%. Consider `CC(NC(=O)CCCC1CCCCC1)c1ccc(S(N)(=O)=O)cc1` (centres unmarked), for which the “hERG current change (%, negative = inhibition) at 10uM” value worked out at 16.4%.

As for `CC(=O)CSc1nnc(Cc2ccc([N+](=O)[O-])cc2)o1`, the “hERG current change (%, negative = inhibition) at 10uM” value is 2.42%. As to `COc1ccc(NC(=O)COC(=O)c2ccc(-n3cnnn3)cc2)c([N+](=O)[O-])c1`, the “hERG current change (%, negative = inhibition) at 10uM” value is given as 6.42%. Take `Cc1cc(C=C2C(=O)c3ccccc3C2=O)c(C)n1-c1ccc(C(=O)O)cc1`: the “hERG current change (%, negative = inhibition) at 10uM” value is given as 1.68%.

As to `Cc1ccc(NC(=O)CSc2n[nH]c(-c3ccco3)n2)c(C)c1`, the “hERG current change (%, negative = inhibition) at 10uM” value is recorded as 1.78%. With `CC(=O)N(CCc1ccccc1C)Cc1cc2cc3c(cc2[nH]c1=O)OCO3`, the “hERG current change (%, negative = inhibition) at 10uM” value was -11.1%.

For the compound `CCOC(=O)[C@H]1[C@H]2COc3ccc(Cl)cc3[C@@H]2N2C(=O)c3cc(Br)ccc3NC(=O)[C@@]12C`, the “hERG current change (%, negative = inhibition) at 10uM” value was found to be 4.5%. Turning to `COc1ccc2cc3cc(C(=O)NCCN4CCN(c5ccccc5F)CC4)oc3nc2c1`, the “hERG current change (%, negative = inhibition) at 10uM” value was -15.8%. To `Cc1ccc(/C=C/C(=O)OCc2nc(N)nc(Nc3ccccc3C)n2)o1` belongs -21.7%; to `O=C1CCCc2ccccc2N1Cc1c(Cl)cccc1Cl`, -18.8%; to `Cc1cccc(-c2nc3ccccc3c3nncn23)c1`, -12.1%. Regarding `CCC(=O)N(CCC(c1ccc(C)cc1)c1ccco1)Cc1ccco1` (centres unmarked), the “hERG current change (%, negative = inhibition) at 10uM” value is listed as -18.5%. `CCOc1ccc(/C=N/NC(=O)c2nnn(-c3nonc3N)c2-c2cccs2)cc1`: the “hERG current change (%, negative = inhibition) at 10uM” value is reported as 13%. As for `CCOC(=O)c1ccc(NC(=S)NCCCN2CCCCC2)cc1`, the “hERG current change (%, negative = inhibition) at 10uM” value is -42%.

Turning to `O=C(Nc1c(C(=O)NCc2ccco2)cnn1-c1ccccc1)c1ccc(F)cc1`, the “hERG current change (%, negative = inhibition) at 10uM” value was 15.6%. Regarding `CCn1cc(C(=O)NC(=S)Nc2sc3c(c2C(=O)OC)CCCCCC3)cn1`, the “hERG current change (%, negative = inhibition) at 10uM” value turned out to be 17.9%.
